Test results as given in the supplement of paper PMC3334620.
In all, about 33,000 sequences were measured (“E-score (-0.5 to 0.5)”: median about -0.021, highest 2% from about 0.32 on). The list shows a part of the results.

These sequences were tested against T1, Zap1 (UniProt P47043) (assay: PBM E-score (8-mer binding enrichment) (E-score (-0.5 to 0.5)); higher = stronger / more preferred TF binding; most listed sequences are background and not binding sites). Details: protein concentration: 200 nM; construct: GST-full length.
T1 sequence: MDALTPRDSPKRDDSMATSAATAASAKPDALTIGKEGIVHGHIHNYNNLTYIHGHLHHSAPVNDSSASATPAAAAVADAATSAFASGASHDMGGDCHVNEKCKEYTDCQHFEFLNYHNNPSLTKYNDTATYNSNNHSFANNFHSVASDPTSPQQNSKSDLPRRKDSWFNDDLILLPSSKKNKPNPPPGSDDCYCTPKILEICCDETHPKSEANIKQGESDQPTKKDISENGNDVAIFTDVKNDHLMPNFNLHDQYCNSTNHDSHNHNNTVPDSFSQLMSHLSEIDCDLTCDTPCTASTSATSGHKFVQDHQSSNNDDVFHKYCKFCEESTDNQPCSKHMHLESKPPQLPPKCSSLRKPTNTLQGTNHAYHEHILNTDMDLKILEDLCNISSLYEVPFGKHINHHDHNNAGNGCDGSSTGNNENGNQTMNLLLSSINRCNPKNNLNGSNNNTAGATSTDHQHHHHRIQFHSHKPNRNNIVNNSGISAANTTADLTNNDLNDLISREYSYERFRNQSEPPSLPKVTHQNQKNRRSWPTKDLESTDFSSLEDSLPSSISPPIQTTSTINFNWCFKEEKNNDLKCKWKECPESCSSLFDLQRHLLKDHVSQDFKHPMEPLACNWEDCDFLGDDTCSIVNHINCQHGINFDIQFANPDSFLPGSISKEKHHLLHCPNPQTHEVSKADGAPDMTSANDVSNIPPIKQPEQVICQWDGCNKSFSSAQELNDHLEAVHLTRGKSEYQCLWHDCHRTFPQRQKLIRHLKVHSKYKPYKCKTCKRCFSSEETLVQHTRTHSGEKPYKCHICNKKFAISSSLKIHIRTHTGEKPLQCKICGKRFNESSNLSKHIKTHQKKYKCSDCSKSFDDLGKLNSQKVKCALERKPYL
Method in brief: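 Full-length yeast transcription factors or their DNA-binding domains, GST-tagged and expressed with PURExpress, were applied at about 100-200 nM to universal all-10-mer Agilent arrays. These arrays had been made double-stranded by primer extension on fresh or once-stripped slides. Detection used fluorescent anti-GST, normalisation used masliner, and E-scores for ungapped eight-base words pooled with reverse complements came from the Universal PBM Analysis Suite.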

| Sequence | PBM E-score |
| --- | --- |
| ATCGCGAA | 0.22 |
| CTGGGCGA | -0.18 |
| AAGGCGAT | -0.181 |
| AACACTTA | -0.0773 |
| CATGGATA | 0.0373 |
| GCGAAAAC | 0.0649 |
| AATAACGT | 0.0381 |
| CGGGAGTC | -0.00889 |
| CGTTAACA | 0.00812 |
| ATAACAGG | 0.0159 |
| AAGATGAG | -0.243 |
| GAGCTAGC | -0.179 |
| CTCGCTAC | -0.136 |
| CCAAGGGG | 0.194 |
| GATAGTGA | -0.119 |
| AAACCATA | 0.202 |
| GAGCCATA | 0.0499 |
| CCACGCGA | 0.0769 |
| AAGAGCAC | -0.0466 |
| CGTGTCGC | -0.0752 |
| CACCAACC | 0.131 |
| ACAATTAA | 0.142 |
| ACAGTCAG | -0.111 |
| CACACTGG | -0.204 |
| CAATCAGA | -0.147 |

| Sequence | PBM E-score |
| --- | --- |
| AGAAGCGA | -0.0497 |
| CATATGCG | -0.0511 |
| AACCTCAA | 0.263 |
| GGCTCTTA | -0.27 |
| CGTATTTC | -0.0254 |
| GTCCGGTA | -0.172 |
| ATTTACCG | -0.0582 |
| ATGGGGTA | 0.326 |
| TCGGAAGA | -0.143 |
| ATGGATCC | -0.13 |
| GATTCGAC | 0.0184 |
| GGGTTGTA | 0.35 |
| GTACCAAA | 0.259 |
| CGAGGACG | -0.0989 |
| TGCGCGAA | 0.127 |
| TCCATCGA | -0.0964 |
| AAATCGCG | 0.0597 |
| GGTAGAGA | 0.0668 |
| CAATACCA | 0.241 |
| TCTACTAA | 0.201 |
| ACGGAGCA | -0.338 |
| ACTTTACT | -0.00115 |
| CCTCCACC | -0.0195 |
| CAACTGGC | -0.0185 |
| GAGATCGA | -0.0323 |

| Sequence | PBM E-score |
| --- | --- |
| GCTGACCC | 0.0617 |
| ACGATCAA | -0.0783 |
| GCGGCGAA | -0.0534 |
| ATTGTAGA | 0.0477 |
| TAGTAGAA | -0.0183 |
| GGGCTTAA | -0.0211 |
| AGTTATTC | 0.0952 |
| CTGGGGAC | -0.143 |
| GGGGTACC | 0.424 |
| ATACAGTG | 0.154 |
| ACTTGGTA | 0.0925 |
| CCATACGC | -0.112 |
| AGGGTAGG | 0.32 |
| AGTGGTTA | 0.434 |
| AAGCCTTA | -0.245 |
| AAAGACTG | -0.268 |
| GTCGTGCA | 0.0329 |
| GCCTTGAC | 0.052 |
| AAAAAGGT | 0.403 |
| AAGTAACA | -0.0158 |
| CCTGCTCA | -0.0182 |
| CCGCTGAA | 0.0515 |
| ACTACGAG | 0.0224 |
| AAGGTCTA | 0.157 |
| AATCGCAT | 0.025 |

| Sequence | PBM E-score |
| --- | --- |
| CCAACACA | 0.167 |
| TATTTGAA | 0.189 |
| ATTGAAGC | -0.0429 |
| CTTAGACA | -0.104 |
| ACTCATAC | 0.0265 |
| CTAGTAGC | -0.168 |
| CCAGCGGC | -0.172 |
| CCTTAGCG | -0.0794 |
| GCCCAGAA | -0.0621 |
| CGGTGACG | 0.0241 |
| GCGCGCAC | 0.0311 |
| CTCATCTC | -0.121 |
| ATAACTAT | 0.255 |
| GGCATGAC | -0.132 |
| TACTAATA | 0.118 |
| CACTTTTA | 0.0635 |
| CGCCTCAA | -0.107 |
| AATCCGGA | -0.0976 |
| AATGCGTG | -0.103 |
| CGTGTGTA | 0.0585 |
| GTTAGACA | 0.128 |
| AACGCGAA | 0.179 |
| GTCGAGTA | -0.0846 |
| ACGCCGCC | -0.28 |
| AGTGAGTA | 0.183 |

| Sequence | PBM E-score |
| --- | --- |
| CTTGGCTA | -0.116 |
| CCCAGGAA | -0.0899 |
| CCACCCTC | 0.358 |
| ATGCCGAA | -0.116 |
| ATTCGAAT | 0.126 |
| ACGTTGCA | -0.0204 |
| GAAGACGA | -0.183 |
| GACCCCGC | 0.0879 |
| ACTATTTG | 0.165 |
| AGTGGACG | 0.0699 |
| AACCTGTA | 0.324 |
| GTAACTAC | 0.3 |
| AAATCTCT | -0.0767 |
| CGGAGGCA | -0.116 |
| CGACAGAC | -0.0148 |
| ATTCCGAC | 0.0318 |
| CGAAGCCA | -0.154 |
| AGGTACAA | 0.15 |
| GCGCCTTA | -0.066 |
| AACCACAA | 0.34 |
| AGCAATTA | 0.132 |
| GGTGAACA | -0.231 |
| AACTGAGG | 0.205 |
| AATGACTG | -0.145 |
| ACGTTCCA | -0.0687 |

| Sequence | PBM E-score |
| --- | --- |
| ACGCAATC | -0.0245 |
| CCTGGACG | -0.101 |
| AACTAGGT | 0.178 |
| AGCTGGCG | -0.283 |
| CCCCACTC | -0.119 |
| ACCTGCTC | -0.0883 |
| CATGTAAC | 0.191 |
| TAGAGTGA | 0.0251 |
| AGACTAAT | -0.105 |
| ACCAGATA | 0.219 |
| CACCAATA | 0.108 |
| CGCACGTC | -0.14 |
| GAGCCGTA | -0.081 |
| GCAATTCA | -0.0856 |
| CAAAGGAA | 0.0643 |
| CATTTGGG | 0.0343 |
| AAGTCTAT | -0.0715 |
| AGGTATCG | 0.206 |
| CGCTATTA | -0.0112 |
| CTGGGGTC | 0.266 |
| AAGAGGTA | 0.272 |
| GACATCTC | -0.0894 |
| AACGCTTA | -0.126 |
| CGTTGTAG | -0.0486 |
| TATGCGAA | 0.143 |

| Sequence | PBM E-score |
| --- | --- |
| CTTAGGCA | -0.175 |
| ACCGTCAC | 0.139 |
| ACGCATAA | -0.0273 |
| ACACATTA | -0.154 |
| GCCACTAC | -0.0479 |
| AGCCCTGG | -0.193 |
| GGCCCTCA | -0.102 |
| GGCACGTA | -0.273 |
| AGTCGGAG | -0.0634 |
| CTTTCGAC | -0.0437 |
| ATACGGGG | 0.00834 |
| GCAACGGC | -0.0373 |
| ATCAGAAC | 0.0575 |
| AAACTGGC | -0.269 |
| CCTTGCGA | 0.132 |
| AGCTGGCA | -0.0191 |
| AGGGGGTA | 0.0442 |
| ATTATACC | 0.338 |
| TGACCCAA | 0.302 |
| CTCTAGTC | -0.0908 |
| ATATTGCA | 0.0217 |
| TAGCCAAA | 0.0689 |
